# Reference: PubChem BioAssay AID686979 (National Center for Advancing Translational Sciences (NCATS), 2013)
# Several values for one entry are separate records, joined by “and”; a condition that tells them apart may be missing. Equal values may be shown once. Screen size: about 420,000 compounds; about 50,000 (12%) were called active. Inconclusive means that the source gave no clear call. Such entries were picked first, then a sample of the others. Calls come from the whole dose curve; as a rule, active = well fitted inhibition curve with a large enough effect; inconclusive = small, poorly fitted or top-dose-only effect; inactive = flat fitted curve, though single readings scatter. A potency beside an inconclusive call is a rough fit, not a confirmed value.
# Test: qHTS for Inhibitors of human tyrosyl-DNA phosphodiesterase 1 (TDP1): qHTS in cells in presence of CPT; note: nearly all actives have a fitted effect of over 55% in size
# Conditions: chicken DT40 Tdp1-/-;hTDP1 cells + 20 nM CPT, ATP luminescence, 48 h; series mostly up to 46.2 µM
# Summary of the method: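 Chicken DT40 Tdp1-/- cells complemented with human TDP1, 400 cells/well, exposed to compounds plus 20 nM camptothecin for at least 48 h at 37 C; viability read as ATP content by CellTiter-Glo luminescence.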
# Potency is the fitted concentration of half-maximal effect; tags give direction and shape of the fitted curve.
row,SMILES,Potency
1,c1ccc2c(Nc3ccc4c(c3)OCCO4)c3c(nc2c1)CCCC3,active: 4.61 µM
2,S=c1nc(-c2ccccc2Br)[nH][nH]1,"inconclusive: 29.1 µM [inhibitor, single point]"
3,CC1Cc2ccccc2N1C(=O)CSc1ncc(-c2ccc(F)cc2)n1C (stereo not given),"inconclusive: 29.1 µM [inhibitor, single point]"
4,O=C(Nc1ccc(Br)cc1)c1cccc(N2C(=O)C3C4C=CC(C4)C3C2=O)c1 (stereo not given),active: 23.1 µM
5,CC(=O)N1CCOc2ccc(S(=O)(=O)NC[C@H]3O[C@@H](n4ccc(N)nc4=O)[C@H](O)[C@@H]3O)cc21,inactive
6,c1ccc2c(c1)CC(N1CCCCC1)c1ccccc1N2 (stereo not given),inactive
7,CN1CCc2c(sc3nc(SCC(=O)N4CCOCC4)nc(N)c23)C1,active: 23.1 µM
8,O=C(O)/C=C/C(=O)Nc1ccccc1-c1ccccc1,active: 8.2 µM
9,O=C(O)C[C@@H](CNC(=O)COc1ccc2ccc(=O)oc2c1)c1ccc(Cl)cc1,inactive
10,CC(O)CNc1ccc(-c2n[nH]c(=O)c3ccccc23)cc1[N+](=O)[O-] (stereo not given),"inconclusive: 18.4 µM [inhibitor, single point]"
11,CCOc1ccc(NC(=O)CSC2=NCCN2)cc1,"inconclusive: 10.3 µM [inhibitor, partial curve, poor fit]"
12,Cc1cc(-c2ccc(S(=O)(=O)Nc3ccc(Cl)cc3C)cc2)on1,active: 4.61 µM
13,Oc1ccc(/C=N/Nc2nc(N3CCCC3)nc(N3CCCC3)n2)cc1O,"inconclusive: 5.17 µM [inhibitor, full curve]"
14,CCOc1ccccc1NC(=O)c1c(NCc2sccc2C)sc2c1CCC(C)C2 (stereo not given),active: 6.51 µM
15,CC(C)NC(=O)c1ccc(COc2ccc(C(C)(C)C)cc2)o1,"inconclusive: 18.4 µM [inhibitor, single point]"
16,Cc1cc(N2C(=O)C(O)=C(C(=O)c3ccc(C)o3)C2c2ccc(OCc3ccccc3)cc2)no1 (stereo not given),"inconclusive: 23.1 µM [inhibitor, single point]"
17,O=[N+]([O-])c1cccc(-c2ccc(/C=N/Nc3nc(N4CCCCC4)nc(N4CCCCC4)n3)o2)c1,"inconclusive: 25.9 µM [inhibitor, single point]"
18,CCCN(C(=O)Cn1ncc2c([nH]c3ccc(C)cc32)c1=O)c1ccccc1C,"inconclusive: 18.4 µM [inhibitor, single point]"
19,COc1ccc(OC)c(C(=O)NC(CC(N)=O)c2ccc(NCCOc3ccccc3)c([N+](=O)[O-])c2)c1 (stereo not given),"inconclusive: 16.4 µM [inhibitor, partial curve]"
20,CCOC(=O)N1CCN(C(=O)c2cccc(OC)c2O)CC1,inactive
21,O=C(NCc1ccc(F)cc1)C(c1ccc(Cl)cc1)N(C(=O)c1csnn1)C1CC1 (stereo not given),"inconclusive: 18.4 µM [inhibitor, single point]"
22,CC(=O)N1CCC(c2c[nH]c3ccccc23)CC1,inactive
23,Cc1ccc(NC(=O)Cn2cc(S(=O)(=O)N3CCC(C)CC3)c3ccccc3c2=O)c(Br)c1,inactive

row,SMILES,Potency
1,Cc1cccc(Oc2ccc3c(c2)Oc2ccccc2NC3=O)c1,active: 16.4 µM
2,COc1ccc(-c2cc(C(=O)NCC(c3ccccc3)N(C)C)c3ccccc3n2)cc1OC (stereo not given),"inconclusive: 20.6 µM [inhibitor, single point]"
3,COc1cc(/C=C2\NC(=O)NC2=O)cc(Br)c1OC,inactive
4,CC(C)CCNC(=O)NC(=O)COC(=O)/C=C/c1cnc2ccccc2n1,"inconclusive: 18.4 µM [inhibitor, single point]"
5,COC(=O)c1ccc(N2C(=O)CC(N(C)Cc3ccccc3)C2=O)cc1 (stereo not given),"inconclusive: 18.4 µM [inhibitor, single point]"
6,CCN(CC(=O)Nc1ccc2c(c1)OCCO2)C(=O)c1ccccc1Br,"inconclusive: 18.4 µM [inhibitor, single point]"
7,COC(=O)c1cc(C#N)c(NCc2ccccc2)nc1C,"inconclusive: 23.1 µM [inhibitor, partial curve, poor fit]"
8,COc1ccc(-n2nnnc2SCC(=O)Nc2ccc3c(c2)OCCO3)cc1OC,"inconclusive: 20.6 µM [inhibitor, single point]"
9,CCCCN(CCCNC(=O)c1c(C)oc2nc[nH]c(=O)c12)Cc1ccccc1,inactive
10,CCOc1ccc(-c2ncncc2-c2ccc(OC)c(OC)c2)c(O)c1,"inconclusive: 18.4 µM [inhibitor, single point]"
11,CS(=O)(=O)Nc1cccc(C2=NN(C(=O)c3ccccc3Cl)C(c3ccccc3O)C2)c1 (stereo not given),active: 14.6 µM
12,COc1ccc(OCc2cc(C(=O)N(C)C(C)c3ccon3)no2)c(Cl)c1 (stereo not given),"inconclusive: 29.1 µM [inhibitor, single point]"
13,COc1ccccc1NC(=S)NCc1cccs1,inactive
14,Cc1ccc(Nc2c(-c3cccnc3)nc3ccc(Br)cn23)cc1,"inconclusive: 23.1 µM [inhibitor, partial curve] and inconclusive: 10.3 µM [inhibitor, partial curve]"
15,O=C(CCc1ccccc1)NCCc1ccc(F)cc1,inactive
16,CNC(=O)c1c(NC(=O)c2ccc(S(=O)(=O)N3CCCCC3C)cc2)sc2c1CCC2 (stereo not given),active: 13 µM
17,COCc1ccc(C(=O)N2CCCC(C(=O)c3cccc(C(F)(F)F)c3)C2)o1 (stereo not given),"inconclusive: 18.4 µM [inhibitor, single point]"
18,CN(C)S(=O)(=O)c1cccc(NC(=S)N/N=C/c2ccc(O)c(O)c2O)c1,"inconclusive: 18.4 µM [inhibitor, single point]"
19,COc1ccc(OCC(=O)OCC(=O)NCc2ccco2)cc1,inactive
20,COc1ccc(NC(=O)CSCC(=O)Nc2cccc(S(=O)(=O)N3CCCCCC3)c2)cc1,"inconclusive: 18.4 µM [inhibitor, single point]"
21,O=C(N/N=C/c1ccc(F)cc1)c1cc(-c2ccccn2)nc2ccccc12,"inconclusive: 29.1 µM [inhibitor, single point]"
22,COc1ccc(C(C)NC(=O)Cc2cccs2)cc1OC (stereo not given),inactive
